# Laboratory results as given in the supplement of paper PMC8728848.
# The list shows a part of the results.
# Assays:
# Assay in all cases: glycan array binding signal (z-score within array); higher = stronger binding
# Conditions in all cases: glycan notation: IUPAC condensed, linker removed
# [1] = biological target: Gal(b1-3)GlcNAc(b1-2)Man(a1-3)[Gal(b1-3)GlcNAc(b1-2)Man(a1-6)]Man(b1-4)GlcNAc(b1-4)GlcNAc
# Summary of the method: (§1)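 Columns mapping to the same glycan were averaged after glycan names were converted to IUPAC-condensed notation. The data come from 3228 arrays in the Consortium for Functional Glycomics database, limited to those with an available protein sequence. Binding is reported as a within-array Z-score averaged across arrays of one protein sequence and across linkers.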
# [2] = biological target: Gal(b1-3)GlcNAc(b1-2)Man(a1-3)[Gal(b1-3)GlcNAc(b1-2)Man(a1-6)]Man(b1-4)GlcNAc(b1-4)[Fuc(a1-6)]GlcNAc
# Summary of the method: as §1
# [3] = biological target: Gal(b1-3)GlcNAc(b1-2)Man(a1-3)[GlcNAc(b1-4)][Gal(b1-3)GlcNAc(b1-2)Man(a1-6)]Man(b1-4)GlcNAc(b1-4)GlcNAc
# Summary of the method: as §1
# [4] = biological target: Gal(b1-3)GlcNAc(b1-2)[Gal(b1-3)GlcNAc(b1-6)]Man(a1-6)[Gal(b1-3)GlcNAc(b1-2)Man(a1-3)]Man(b1-4)GlcNAc(b1-4)GlcNAc
# Summary of the method: as §1
# [5] = biological target: Gal(b1-3)GlcNAc(b1-3)Gal(b1-3)GlcNAc
# Summary of the method: as §1
# [6] = biological target: Gal(b1-3)GlcNAc(b1-3)Gal(b1-4)Glc
# Summary of the method: as §1
# [7] = biological target: Gal(b1-3)GlcNAc(b1-3)Gal(b1-4)GlcNAc
# Summary of the method: as §1
# [8] = biological target: Gal(b1-3)GlcNAc(b1-3)Gal(b1-4)GlcNAc(b1-2)Man(a1-3)[Gal(b1-3)GlcNAc(b1-3)Gal(b1-4)GlcNAc(b1-2)Man(a1-6)]Man(b1-4)GlcNAc(b1-4)GlcNAc
# Summary of the method: as §1
# [9] = biological target: Gal(b1-3)GlcNAc(b1-3)Gal(b1-4)GlcNAc(b1-2)[Gal(b1-3)GlcNAc(b1-3)Gal(b1-4)GlcNAc(b1-6)]Man(a1-6)[Gal(b1-3)GlcNAc(b1-3)Gal(b1-4)GlcNAc(b1-2)Man(a1-3)]Man(b1-4)GlcNAc(b1-4)[Fuc(a1-6)]GlcNAc
# Summary of the method: as §1
# [10] = biological target: Gal(b1-3)GlcNAc(b1-3)Gal(b1-4)GlcNAc(b1-3)Gal(b1-4)GlcNAc(b1-2)[Gal(b1-3)GlcNAc(b1-3)Gal(b1-4)GlcNAc(b1-3)Gal(b1-4)GlcNAc(b1-6)]Man(a1-6)[Gal(b1-3)GlcNAc(b1-3)Gal(b1-4)GlcNAc(b1-3)Gal(b1-4)GlcNAc(b1-2)Man(a1-3)]Man(b1-4)GlcNAc(b1-4)[Fuc(a1-6)]GlcNAc
# Summary of the method: as §1
# [11] = biological target: Gal(b1-3)GlcNAc(b1-3)Gal(b1-4)GlcNAc(b1-6)[Gal(b1-3)GlcNAc(b1-3)]Gal(b1-4)Glc
# Summary of the method: as §1
# [12] = biological target: Gal(b1-3)GlcNAc(b1-3)Gal(b1-4)[Fuc(a1-3)]GlcNAc
# Summary of the method: as §1
# [13] = biological target: Gal(b1-3)GlcNAc(b1-3)Gal(b1-4)[Fuc(a1-3)]GlcNAc(b1-6)[Gal(b1-3)GlcNAc(b1-3)]Gal(b1-4)Glc
# Summary of the method: as §1
# [14] = biological target: Gal(b1-3)GlcNAc(b1-3)GalNAc
# Summary of the method: as §1
# [15] = biological target: Gal(b1-3)GlcNAc(b1-6)Gal(b1-4)GlcNAc
# Summary of the method: as §1
# [16] = biological target: Gal(b1-3)GlcNAc(b1-6)GalNAc
# Summary of the method: as §1
# [17] = biological target: Gal(b1-3)GlcNAc(b1-6)[Gal(b1-3)]GalNAc
# Summary of the method: as §1
# [18] = biological target: Gal(b1-3)GlcNAc6S
# Summary of the method: as §1
# [19] = biological target: Gal(b1-3)[Fuc(a1-4)]GlcNAc
# Summary of the method: as §1
# [20] = biological target: Gal(b1-3)[Fuc(a1-4)]GlcNAc(b1-2)Man
# Summary of the method: as §1
# [21] = biological target: Gal(b1-3)[Fuc(a1-4)]GlcNAc(b1-2)Man(a1-3)[Gal(b1-3)[Fuc(a1-4)]GlcNAc(b1-2)Man(a1-6)]Man(b1-4)GlcNAc(b1-4)[Fuc(a1-6)]GlcNAc
# Summary of the method: as §1
# [22] = biological target: Gal(b1-3)[Fuc(a1-4)]GlcNAc(b1-3)Gal(b1-3)[Fuc(a1-4)]GlcNAc
# Summary of the method: as §1
# [23] = biological target: Gal(b1-3)[Fuc(a1-4)]GlcNAc(b1-3)Gal(b1-4)[Fuc(a1-3)]GlcNAc
# Summary of the method: as §1
# [24] = biological target: Gal(b1-3)[Fuc(a1-4)]GlcNAc(b1-6)GalNAc
# Summary of the method: as §1
# [25] = biological target: Gal(b1-3)[GlcNAc(b1-6)]GalNAc
# Summary of the method: as §1
# [26] = biological target: Gal(b1-3)[Neu5Ac(a2-6)]GalNAc
# Summary of the method: as §1
# [27] = biological target: Gal(b1-3)[Neu5Ac(a2-6)]GlcNAc(b1-4)Gal(b1-4)Glc
# Summary of the method: as §1
# [28] = biological target: Gal(b1-3)[Neu5Ac(b2-6)]GalNAc
# Summary of the method: as §1
# [29] = biological target: Gal(b1-4)Gal
# Summary of the method: as §1
# [30] = biological target: Gal(b1-4)GalNAc(a1-3)[Fuc(a1-2)]Gal(b1-4)GlcNAc
# Summary of the method: as §1
# [31] = biological target: Gal(b1-4)GalNAc(b1-3)[Fuc(a1-2)]Gal(b1-4)GlcNAc
# Summary of the method: as §1
# [32] = biological target: Gal(b1-4)Glc
# Summary of the method: as §1
# [33] = biological target: Gal(b1-4)Glc6S
# Summary of the method: as §1
# [34] = biological target: Gal(b1-4)GlcNAc
# Summary of the method: as §1
# [35] = biological target: Gal(b1-4)GlcNAc(a1-6)Gal(b1-4)GlcNAc
# Summary of the method: as §1
# [36] = biological target: Gal(b1-4)GlcNAc(b1-2)Man
# Summary of the method: as §1
# [37] = biological target: Gal(b1-4)GlcNAc(b1-2)Man(a1-3)Man(b1-4)GlcNAc(b1-4)GlcNAc
# Summary of the method: as §1
# [38] = biological target: Gal(b1-4)GlcNAc(b1-2)Man(a1-3)[Gal(b1-4)GlcNAc(b1-2)Man(a1-6)]Man(b1-4)GlcNAc(b1-4)GlcNAc
# Summary of the method: as §1
# [39] = biological target: Gal(b1-4)GlcNAc(b1-2)Man(a1-3)[Gal(b1-4)GlcNAc(b1-2)Man(a1-6)]Man(b1-4)GlcNAc(b1-4)[Fuc(a1-6)]GlcNAc
# Summary of the method: as §1
# [40] = biological target: Gal(b1-4)GlcNAc(b1-2)Man(a1-3)[Gal(b1-4)GlcNAc(b1-2)Man(a1-6)][Gal(b1-4)GlcNAc(b1-4)]Man(b1-4)GlcNAc(b1-4)[Fuc(a1-6)]GlcNAc
# Summary of the method: as §1
# [41] = biological target: Gal(b1-4)GlcNAc(b1-2)Man(a1-3)[Gal(b1-4)GlcNAc(b1-2)Man(a1-6)][GlcNAc(b1-4)]Man(b1-4)GlcNAc(b1-4)[Fuc(a1-6)]GlcNAc
# Summary of the method: as §1
# [42] = biological target: Gal(b1-4)GlcNAc(b1-2)Man(a1-3)[GlcNAc(b1-2)Man(a1-6)]Man(b1-4)GlcNAc(b1-4)GlcNAc
# Summary of the method: as §1
# [43] = biological target: Gal(b1-4)GlcNAc(b1-2)Man(a1-3)[GlcNAc(b1-4)][Gal(b1-4)GlcNAc(b1-2)Man(a1-6)]Man(b1-4)GlcNAc(b1-4)GlcNAc
# Summary of the method: as §1
# [44] = biological target: Gal(b1-4)GlcNAc(b1-2)Man(a1-3)[Man(a1-6)]Man(b1-4)GlcNAc(b1-4)GlcNAc
# Summary of the method: as §1
# [45] = biological target: Gal(b1-4)GlcNAc(b1-2)Man(a1-6)Man(b1-4)GlcNAc(b1-4)GlcNAc
# Summary of the method: as §1
binder,measurement,setting,value
"AFL5 (Aspergillus fumigatus), Q4WB00 (protein) MDNFMEMTKKLGHQPELLRLRALDATYDDALEGKLVVAPLDMSEPGKKILDSGTADGTWLRNVRSKQSVPHDYYGSDVEGELFPKDPDGITYFAHSFKDPWPQQYLGFFDLVHIRGSLAGSAPEGPAPVIQNLTTLLKPGGWVQLMEMNAFSPPPNGPAMTDFAKMASEMFTGIGVGDFANNNKSMLEDAGLKNVQEKRVIVNLGKKAKPELHDQSIHGVTGPIVPLTSVARTVKSSFTGEQLDALPARVKEELETEGGQVEMIIAFGQKA",glycan array binding signal (z-score),[1],0.376
same,glycan array binding signal (z-score),[2],0.328
same,glycan array binding signal (z-score),[3],-0.187
same,glycan array binding signal (z-score),[4],0.203
same,glycan array binding signal (z-score),[5],-0.431
same,glycan array binding signal (z-score),[6],-0.603
same,glycan array binding signal (z-score),[7],-0.242
same,glycan array binding signal (z-score),[8],-0.372
same,glycan array binding signal (z-score),[9],1.17
same,glycan array binding signal (z-score),[10],-0.171
same,glycan array binding signal (z-score),[11],-0.412
same,glycan array binding signal (z-score),[12],0.029
same,glycan array binding signal (z-score),[13],-0.146
same,glycan array binding signal (z-score),[14],0.324
same,glycan array binding signal (z-score),[15],0.137
same,glycan array binding signal (z-score),[16],0.008
same,glycan array binding signal (z-score),[17],-0.782
same,glycan array binding signal (z-score),[18],-0.19
same,glycan array binding signal (z-score),[19],-0.362
same,glycan array binding signal (z-score),[20],-0.142
same,glycan array binding signal (z-score),[21],-0.37
same,glycan array binding signal (z-score),[22],-0.726
same,glycan array binding signal (z-score),[23],-0.394
same,glycan array binding signal (z-score),[24],0.029
same,glycan array binding signal (z-score),[25],0.164
same,glycan array binding signal (z-score),[26],-0.564
same,glycan array binding signal (z-score),[27],-0.419
same,glycan array binding signal (z-score),[28],-0.429
same,glycan array binding signal (z-score),[29],-0.502
same,glycan array binding signal (z-score),[30],0.181
same,glycan array binding signal (z-score),[31],-0.527
same,glycan array binding signal (z-score),[32],-0.235
same,glycan array binding signal (z-score),[33],-0.068
same,glycan array binding signal (z-score),[34],-0.261
same,glycan array binding signal (z-score),[35],-0.49
same,glycan array binding signal (z-score),[36],0.065
same,glycan array binding signal (z-score),[37],-0.271
same,glycan array binding signal (z-score),[38],-0.034
same,glycan array binding signal (z-score),[39],0.004
same,glycan array binding signal (z-score),[40],-0.097
same,glycan array binding signal (z-score),[41],-0.411
same,glycan array binding signal (z-score),[42],-0.964
same,glycan array binding signal (z-score),[43],-0.705
same,glycan array binding signal (z-score),[44],0.106
same,glycan array binding signal (z-score),[45],-0.114
